# From the supplement of paper PMC8728848
# This is one part of the list.
# How the values were obtained:
# Experiment in all cases: glycan array binding signal (z-score within array); higher = stronger binding
# Conditions in all cases: glycan notation: IUPAC condensed, linker removed; mutation: D22R
# [1] = molecular target: Fuc(a1-2)[GalNAc(b1-3)]Gal
# Method in brief: (§1)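 Columns mapping to the same glycan were averaged after glycan names were converted to IUPAC-condensed notation. The data come from 3228 arrays in the Consortium for Functional Glycomics database, limited to those with an available protein sequence. Binding is reported as a within-array Z-score averaged across arrays of one protein sequence and across linkers.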
# Fuc(a1-3)GlcNAc = molecular target: Fuc(a1-3)GlcNAc
# Method in brief: as §1
# [2] = molecular target: Fuc(a1-3)[Gal(b1-4)]Glc6S
# Method in brief: as §1
# [3] = molecular target: Fuc(a1-3)[Gal(b1-4)]GlcNAc
# Method in brief: as §1
# [4] = molecular target: Fuc(a1-3)[Gal(b1-4)]GlcNAc(b1-2)Man
# Method in brief: as §1
# [5] = molecular target: Fuc(a1-3)[Gal(b1-4)]GlcNAc(b1-2)Man(a1-3)[Fuc(a1-3)[Gal(b1-4)]GlcNAc(b1-2)Man(a1-6)]Man(b1-4)GlcNAc(b1-4)GlcNAc
# Method in brief: as §1
# [6] = molecular target: Fuc(a1-3)[Gal(b1-4)]GlcNAc(b1-2)Man(a1-3)[Fuc(a1-3)[Gal(b1-4)]GlcNAc(b1-2)Man(a1-6)]Man(b1-4)GlcNAc(b1-4)[Fuc(a1-6)]GlcNAc
# Method in brief: as §1
# [7] = molecular target: Fuc(a1-3)[Gal(b1-4)]GlcNAc(b1-3)Gal(b1-3)[Fuc(a1-4)]GlcNAc
# Method in brief: as §1
# [8] = molecular target: Fuc(a1-3)[Gal(b1-4)]GlcNAc(b1-3)Gal(b1-4)[Fuc(a1-3)]GlcNAc
# Method in brief: as §1
# [9] = molecular target: Fuc(a1-3)[Gal(b1-4)]GlcNAc(b1-3)Gal(b1-4)[Fuc(a1-3)]GlcNAc(b1-3)Gal(b1-4)[Fuc(a1-3)]GlcNAc
# Method in brief: as §1
# [10] = molecular target: Fuc(a1-3)[Gal(b1-4)]GlcNAc(b1-3)GalNAc
# Method in brief: as §1
# [11] = molecular target: Fuc(a1-3)[Gal(b1-4)]GlcNAc(b1-6)GalNAc
# Method in brief: as §1
# [12] = molecular target: Fuc(a1-3)[Gal(b1-4)]GlcNAc(b1-6)[Gal(b1-3)GlcNAc(b1-3)]Gal(b1-4)Glc
# Method in brief: as §1
# [13] = molecular target: Fuc(a1-3)[Gal(b1-4)]GlcNAc6S
# Method in brief: as §1
# [14] = molecular target: Fuc(a1-3)[Gal3S(b1-4)]Glc
# Method in brief: as §1
# [15] = molecular target: Fuc(a1-3)[Gal3S(b1-4)]GlcNAc
# Method in brief: as §1
# [16] = molecular target: Fuc(a1-3)[Gal3S(b1-4)]GlcNAc6S
# Method in brief: as §1
# [17] = molecular target: Fuc(a1-3)[GalNAc(b1-4)]GlcNAc
# Method in brief: as §1
# [18] = molecular target: Fuc(a1-3)[GalNAc(b1-4)]GlcNAc6S
# Method in brief: as §1
# Fuc(a1-4)GlcNAc = molecular target: Fuc(a1-4)GlcNAc
# Method in brief: as §1
# Fuc(b1-3)GlcNAc = molecular target: Fuc(b1-3)GlcNAc
# Method in brief: as §1
# Gal(a1-2)Gal = molecular target: Gal(a1-2)Gal
# Method in brief: as §1
# Gal(a1-3)Gal = molecular target: Gal(a1-3)Gal
# Method in brief: as §1
# Gal(a1-3)Gal(b1-3)GlcNAc = molecular target: Gal(a1-3)Gal(b1-3)GlcNAc
# Method in brief: as §1
# [19] = molecular target: Gal(a1-3)Gal(b1-3)GlcNAc(b1-2)Man
# Method in brief: as §1
# [20] = molecular target: Gal(a1-3)Gal(b1-3)GlcNAc(b1-2)Man(a1-3)[Gal(a1-3)Gal(b1-3)GlcNAc(b1-2)Man(a1-6)]Man(b1-4)GlcNAc(b1-4)GlcNAc
# Method in brief: as §1
# [21] = molecular target: Gal(a1-3)Gal(b1-3)GlcNAc(b1-3)GalNAc
# Method in brief: as §1
# [22] = molecular target: Gal(a1-3)Gal(b1-3)GlcNAc(b1-6)GalNAc
# Method in brief: as §1
# [23] = molecular target: Gal(a1-3)Gal(b1-3)[Fuc(a1-4)]GlcNAc(b1-2)Man(a1-3)[Gal(a1-3)Gal(b1-3)[Fuc(a1-4)]GlcNAc(b1-2)Man(a1-6)]Man(b1-4)GlcNAc(b1-4)GlcNAc
# Method in brief: as §1
# Gal(a1-3)Gal(b1-4)Glc = molecular target: Gal(a1-3)Gal(b1-4)Glc
# Method in brief: as §1
# Gal(a1-3)Gal(b1-4)GlcNAc = molecular target: Gal(a1-3)Gal(b1-4)GlcNAc
# Method in brief: as §1
# [24] = molecular target: Gal(a1-3)Gal(b1-4)GlcNAc(b1-2)Man
# Method in brief: as §1
# [25] = molecular target: Gal(a1-3)Gal(b1-4)GlcNAc(b1-2)Man(a1-3)[Gal(a1-3)Gal(b1-4)GlcNAc(b1-2)Man(a1-6)]Man(b1-4)GlcNAc(b1-4)GlcNAc
# Method in brief: as §1
# [26] = molecular target: Gal(a1-3)Gal(b1-4)GlcNAc(b1-3)GalNAc
# Method in brief: as §1
# [27] = molecular target: Gal(a1-3)Gal(b1-4)GlcNAc(b1-6)GalNAc
# Method in brief: as §1
# [28] = molecular target: Gal(a1-3)Gal(b1-4)[Fuc(a1-3)]GlcNAc
# Method in brief: as §1
# [29] = molecular target: Gal(a1-3)Gal(b1-4)[Fuc(a1-3)]GlcNAc(b1-2)Man(a1-3)[Gal(a1-3)Gal(b1-4)[Fuc(a1-3)]GlcNAc(b1-2)Man(a1-6)]Man(b1-4)GlcNAc(b1-4)GlcNAc
# Method in brief: as §1
# Gal(a1-3)GalNAc = molecular target: Gal(a1-3)GalNAc
# Method in brief: as §1
# [30] = molecular target: Gal(a1-3)[Gal(a1-4)]Gal(b1-4)GlcNAc
# Method in brief: as §1
# [31] = molecular target: Gal(a1-4)Gal(b1-3)GlcNAc(b1-2)Man(a1-3)[Gal(a1-4)Gal(b1-3)GlcNAc(b1-2)Man(a1-6)]Man(b1-4)GlcNAc(b1-4)GlcNAc
# Method in brief: as §1
# Gal(a1-4)Gal(b1-4)Glc = molecular target: Gal(a1-4)Gal(b1-4)Glc
# Method in brief: as §1
# Gal(a1-4)Gal(b1-4)GlcNAc = molecular target: Gal(a1-4)Gal(b1-4)GlcNAc
# Method in brief: as §1
# [32] = molecular target: Gal(a1-4)Gal(b1-4)GlcNAc(b1-2)Man(a1-3)[Gal(a1-4)Gal(b1-4)GlcNAc(b1-2)Man(a1-6)]Man(b1-4)GlcNAc(b1-4)GlcNAc
# Method in brief: as §1
# [33] = molecular target: Gal(a1-4)Gal(b1-4)GlcNAc(b1-3)Gal(b1-4)Glc
# Method in brief: as §1
# Gal(a1-4)GlcNAc = molecular target: Gal(a1-4)GlcNAc
# Method in brief: as §1
binder,measurement,setting,value
MpL2 (Macrolepiota procera) (protein) MSTQVSSGQTYKITNVKAGTVIRLSGEDNKSIIGYPYHSGKNQQWTFNWTGKAWTLRSASSGSYLGIEGTPADGTRLVAVNDPFEWHIWRDEANENAFRIFVPFTNYNLDLSGYGDTTPGTPVQLWWTWEGLHQTWTIDRP,glycan array binding signal (z-score),[1],0.206
same,glycan array binding signal (z-score),Fuc(a1-3)GlcNAc,-0.513
same,glycan array binding signal (z-score),[2],0.526
same,glycan array binding signal (z-score),[3],-0.381
same,glycan array binding signal (z-score),[4],-0.547
same,glycan array binding signal (z-score),[5],-0.601
same,glycan array binding signal (z-score),[6],0.991
same,glycan array binding signal (z-score),[7],-0.401
same,glycan array binding signal (z-score),[8],0.151
same,glycan array binding signal (z-score),[9],-0.696
same,glycan array binding signal (z-score),[10],-0.14
same,glycan array binding signal (z-score),[11],0.321
same,glycan array binding signal (z-score),[12],-1.01
same,glycan array binding signal (z-score),[13],0.212
same,glycan array binding signal (z-score),[14],-0.082
same,glycan array binding signal (z-score),[15],-0.059
same,glycan array binding signal (z-score),[16],0.155
same,glycan array binding signal (z-score),[17],0.027
same,glycan array binding signal (z-score),[18],0.229
same,glycan array binding signal (z-score),Fuc(a1-4)GlcNAc,-0.067
same,glycan array binding signal (z-score),Fuc(b1-3)GlcNAc,-0.328
same,glycan array binding signal (z-score),Gal(a1-2)Gal,-0.294
same,glycan array binding signal (z-score),Gal(a1-3)Gal,0.246
same,glycan array binding signal (z-score),Gal(a1-3)Gal(b1-3)GlcNAc,-0.238
same,glycan array binding signal (z-score),[19],-0.023
same,glycan array binding signal (z-score),[20],0.627
same,glycan array binding signal (z-score),[21],-0.19
same,glycan array binding signal (z-score),[22],-0.565
same,glycan array binding signal (z-score),[23],0.972
same,glycan array binding signal (z-score),Gal(a1-3)Gal(b1-4)Glc,-0.146
same,glycan array binding signal (z-score),Gal(a1-3)Gal(b1-4)GlcNAc,-0.256
same,glycan array binding signal (z-score),[24],-0.446
same,glycan array binding signal (z-score),[25],-0.178
same,glycan array binding signal (z-score),[26],-0.431
same,glycan array binding signal (z-score),[27],-0.928
same,glycan array binding signal (z-score),[28],-0.367
same,glycan array binding signal (z-score),[29],0.356
same,glycan array binding signal (z-score),Gal(a1-3)GalNAc,-0.386
same,glycan array binding signal (z-score),[30],-0.129
same,glycan array binding signal (z-score),[31],0.111
same,glycan array binding signal (z-score),Gal(a1-4)Gal(b1-4)Glc,-0.34
same,glycan array binding signal (z-score),Gal(a1-4)Gal(b1-4)GlcNAc,-0.051
same,glycan array binding signal (z-score),[32],0.974
same,glycan array binding signal (z-score),[33],-2.13
same,glycan array binding signal (z-score),Gal(a1-4)GlcNAc,-0.467
